Experimental findings from article PMC10668032 are described below.

Some of the results follow. At the low end of the ranking the order means little.

This assay deals with SIX1-Q177R homeodomain (UniProt Q15475). The experiment in a line: universal protein binding microarray. The following applies: Universal all-10-mer PBM (8x60K, AMADID 030236), 300 nM GST-tagged protein, Alexa Fluor 488 anti-GST; buffer, salt, pH and temperature not stated; high values mean tight binding; most listed sequences are background and not binding sites; double strand, one strand shown.
With CTCTCACA, the binding signal was determined as 0.0243 E-score.

In the case of CTCAAGGC, the binding signal is -0.09 E-score.

On to GAGTCCTA, for which the binding signal came out at 0.0614 E-score.

Consider ACTTCTCG, for which the binding signal is -0.0756 E-score.

Consider GTACGGTA, for which the binding signal was determined as 0.0455 E-score.

As to TAATTACA, the binding signal is 0.013 E-score.

On to ACTCGCCC, for which the binding signal was 0.126 E-score.

Regarding CATCCCAG, the binding signal was -0.0833 E-score.

In the case of CAAAAGTG, the binding signal turned out to be 0.0612 E-score.

AATAAAGT: the binding signal is -0.144 E-score.

On to TAGAAGAA, for which the binding signal is -0.02 E-score.

In the case of AGGCTTGG, the binding signal was -0.136 E-score.

Regarding CGGTAGTA, the binding signal amounted to 0.00874 E-score.

As for AGGGGACA, the binding signal was 0.179 E-score.

Regarding GCGATGTA, the binding signal came out at 0.123 E-score.

CTTCCGCC: the binding signal is -0.225 E-score.

Regarding ACGACTGC, the binding signal is -0.00522 E-score.

Turning to GTGTTCTA, the binding signal was determined as 0.392 E-score.

In the case of CGGGACTA, the binding signal was -0.305 E-score.

For ACCCACAC, the binding signal was 0.348 E-score.

Take AACTAATG: the binding signal was -0.232 E-score.

On to ACCTAGTC, for which the binding signal was -0.00298 E-score.

With AATTTAAA, the binding signal was -0.207 E-score.

Take ACGTCCAT: the binding signal was -0.103 E-score.

In the case of ACGCCCGA, the binding signal turned out to be 0.17 E-score.

In the case of CTCCTGAA, the binding signal is -0.0647 E-score.

GGAGAGCA: the binding signal is -0.0895 E-score.

On to GCATCCGA, for which the binding signal was 0.0812 E-score.

As to GTGTTACA, the binding signal is 0.442 E-score.

Regarding GCTACATA, the binding signal is -0.199 E-score.

For the sequence AACGTCTA, the binding signal was -0.231 E-score.

In the case of CCAATAAA, the binding signal is -0.102 E-score.

With CACTGAGA, the binding signal came out at 0.202 E-score.

For the sequence CTGAAGTC, the binding signal was -0.111 E-score.

Take ACAGAAGA: the binding signal is -0.0919 E-score.

Turning to CACATTAC, the binding signal was 0.0396 E-score.

Consider CATTTAAG, for which the binding signal is -0.291 E-score.

Take GATCCCCC: the binding signal was found to be 0.368 E-score.

Take GATCAACC: the binding signal was -0.0524 E-score.

For the sequence AACGACAG, the binding signal was -0.0981 E-score.

As for GGTTCTAC, the binding signal is -0.0604 E-score.

Regarding GATTATAC, the binding signal was found to be 0.081 E-score.

Regarding GCCACAAA, the binding signal is -0.101 E-score.

As to ATTCTGAA, the binding signal was -0.255 E-score.

Take ACATATCC: the binding signal was -0.141 E-score.

As to ATCCTTAC, the binding signal amounted to 0.0764 E-score.

In the case of ACCACACA, the binding signal came to 0.196 E-score.

With GCCCGGCC, the binding signal was -0.00347 E-score.

As to CATGGTCG, the binding signal is -0.0497 E-score.

As for GGACCCCA, the binding signal is 0.138 E-score.

For ACTTGCCA, the binding signal was -0.0386 E-score.

With GGATGCAC, the binding signal worked out at 0.0254 E-score.

Take ATGGCGCG: the binding signal was -0.118 E-score.

Regarding GATTGTAA, the binding signal was -0.248 E-score.

In the case of CCGGCGAA, the binding signal was -0.11 E-score.

For the sequence AAACTTCC, the binding signal was -0.22 E-score.

Take AATAAGGT: the binding signal was -0.0889 E-score.

Take AATGGCTA: the binding signal was -0.13 E-score.

For GACGAAAC, the binding signal was -0.296 E-score.

Consider CGAACTGC, for which the binding signal is -0.238 E-score.

Turning to ATACGGAT, the binding signal worked out at 0.0821 E-score.

Take CGAACCTA: the binding signal was -0.117 E-score.

Consider GGTGACGA, for which the binding signal is -0.0414 E-score.

For the sequence CCCCTAAA, the binding signal is -0.0522 E-score.

Take GCAACATA: the binding signal is -0.121 E-score.

Turning to ACCGGGTC, the binding signal is 0.237 E-score.

With ACCCCGTC, the binding signal worked out at 0.178 E-score.

CAAATTCA: the binding signal was -0.139 E-score.

Turning to AAATCAGT, the binding signal was 0.0212 E-score.

In the case of GGAAAGCA, the binding signal is -0.085 E-score.

On to GCAACGCC, for which the binding signal was determined as 0.0787 E-score.

CCCTCCAG: the binding signal stood at 0.149 E-score.

Take ACAAAGAA: the binding signal is -0.0597 E-score.

Take CGGGTGGA: the binding signal was 0.173 E-score.

As to CAAGGGGG, the binding signal was found to be 0.143 E-score.

Turning to AACACGGG, the binding signal was 0.432 E-score.

With ATTCAGTA, the binding signal is -0.195 E-score.

As for TCGGTCAA, the binding signal was -0.0711 E-score.

With CGAGTAAC, the binding signal was determined as 0.0985 E-score.

On to CGAGATTC, for which the binding signal is -0.0507 E-score.

As to ACTATGAA, the binding signal is -0.157 E-score.

Turning to CCCATTGC, the binding signal is -0.0231 E-score.

As for CGCTGGTA, the binding signal is -0.0475 E-score.

In the case of TCGAGCCA, the binding signal came out at 0.0597 E-score.

On to AGTACAGA, for which the binding signal is -0.121 E-score.

Regarding AGAGGGGA, the binding signal was 0.0312 E-score.

Turning to TAGATTAA, the binding signal is -0.0193 E-score.

Turning to AGAGAGTC, the binding signal is -0.0205 E-score.

With ACATATCA, the binding signal was -0.0686 E-score.

Regarding CAAAGTCG, the binding signal was -0.104 E-score.

As for CCTGCTCG, the binding signal is -0.12 E-score.

For CGTAAATA, the binding signal was -0.0461 E-score.

In the case of GACACCAC, the binding signal was 0.489 E-score.

Consider ACTTTGAT, for which the binding signal is -0.0928 E-score.

For the sequence ATAAAGTG, the binding signal stood at 0.0427 E-score.

On to ACCGTTGC, for which the binding signal was determined as 0.000345 E-score.

In the case of CCTTCACC, the binding signal is -0.116 E-score.

Consider CACACACG, for which the binding signal was determined as 0.248 E-score.

As for GCAGCTCA, the binding signal was -0.22 E-score.

On to TAACTATA, for which the binding signal was -0.127 E-score.

CTCCGGCA: the binding signal was -0.0702 E-score.

Take ATCCGTCA: the binding signal was -0.189 E-score.

In the case of AATAGGAC, the binding signal was -0.193 E-score.

For CAGCACTC, the binding signal was -0.0681 E-score.

As to ACTGACCT, the binding signal was -0.148 E-score.

As to AAGGACGA, the binding signal is -0.172 E-score.

ACAGTGAT: the binding signal is -0.112 E-score.

Regarding AATGATGC, the binding signal was -0.314 E-score.

In the case of GACACCTA, the binding signal was 0.463 E-score.

In the case of AGCACCCC, the binding signal came out at 0.295 E-score.

With AGACTACC, the binding signal is -0.0934 E-score.

As for GGCAGCGA, the binding signal is -0.0458 E-score.

On to GGTCTGAC, for which the binding signal was -0.0387 E-score.

Take GAAACATC: the binding signal is -0.139 E-score.

As for AGGTCCGA, the binding signal is -0.0105 E-score.

Consider CTAGCTAG, for which the binding signal was determined as 0.0144 E-score.

As to AGCGGGGG, the binding signal was determined as 0.206 E-score.

Consider ACTTGATG, for which the binding signal was -0.0408 E-score.

For the sequence AGAAGATG, the binding signal was -0.307 E-score.

For the sequence TGGAACCA, the binding signal was -0.197 E-score.

For ACAAGAAA, the binding signal is -0.24 E-score.

Regarding AGCTTGGG, the binding signal is -0.0165 E-score.

CGATTTCA: the binding signal is -0.155 E-score.

Regarding CAAGAAGA, the binding signal is -0.143 E-score.

Take AGCGCGAG: the binding signal was found to be 0.146 E-score.

For GATCCGGC, the binding signal was -0.00713 E-score.

Take GAAAGTCC: the binding signal was -0.357 E-score.

For the sequence AACCTAAT, the binding signal is -0.166 E-score.

For the sequence AGTCGACA, the binding signal turned out to be 0.104 E-score.

For the sequence CGCTTAAA, the binding signal was -0.285 E-score.

CTCCCATC: the binding signal was -0.0346 E-score.

As for CGTGGCCA, the binding signal was -0.125 E-score.

For the sequence ATCGTCGA, the binding signal is -0.164 E-score.

In the case of CGGAAACC, the binding signal was -0.0658 E-score.

As to CCTGCTTC, the binding signal was -0.0438 E-score.

Regarding ACAGGAAT, the binding signal is -0.0608 E-score.

For CACTTGCG, the binding signal turned out to be 0.196 E-score.

Regarding ACGCCTCC, the binding signal was determined as 0.0888 E-score.

Turning to CTGGCGTA, the binding signal came out at 0.0791 E-score.

Take GACAACGA: the binding signal is -0.0533 E-score.

Turning to ACGTAACG, the binding signal was -0.0654 E-score.

GCCGGAAA: the binding signal is -0.0573 E-score.

CAAAAAAC: the binding signal was -0.0186 E-score.

For the sequence ATGTTAGA, the binding signal is -0.0915 E-score.

Consider CTCCCTCC, for which the binding signal is -0.00285 E-score.

GCTGATAA: the binding signal is -0.0257 E-score.

Turning to ATCCTCAG, the binding signal is -0.0088 E-score.

With ATACCAGG, the binding signal worked out at 0.135 E-score.

For TCAATAAA, the binding signal was -0.31 E-score.

On to CAACCCGG, for which the binding signal turned out to be 0.0483 E-score.

As for CCTACTCG, the binding signal was determined as 0.0473 E-score.

In the case of AACATTAA, the binding signal was -0.259 E-score.

On to GTCGTATA, for which the binding signal is -0.00498 E-score.

In the case of ACAAACCC, the binding signal was 0.0914 E-score.

As to AGGCTGTG, the binding signal was -0.0285 E-score.

For CGGATGAA, the binding signal was -0.102 E-score.

Take AGGATAGG: the binding signal is 0.0175 E-score.

ATGTGACG: the binding signal was -0.154 E-score.

Regarding GTACGTCA, the binding signal was -0.0532 E-score.

As to CATGGAGG, the binding signal was 0.134 E-score.

As to GTGACCAC, the binding signal is 0.00314 E-score.

CCGCGCCC: the binding signal was 0.0688 E-score.

ACTTATCA: the binding signal was -0.155 E-score.

ACGAAGTA: the binding signal is 0.154 E-score.

AGGCACGG: the binding signal was -0.0932 E-score.

For AAGAACAT, the binding signal was -0.252 E-score.

For the sequence AGCCCGTA, the binding signal was -0.126 E-score.

As to GCTGTCCA, the binding signal is -0.144 E-score.

In the case of GTATCCAA, the binding signal is 0.292 E-score.

Consider CCTCCATA, for which the binding signal is -0.102 E-score.

Consider AATTAGCG, for which the binding signal was -0.179 E-score.

CATGGCAG: the binding signal is -0.0998 E-score.
